Results as given in patent publication US20260242437A1 (BEIJING MABWORKS BIOTECH, published 2026).

T1: human IL-2Rβγ on CD8+ effector T cells (human, UniProt P14784 27-551; P31785 23-369)
T1 construct: whole, on cells; the assay was on primary human CD8+ effector T cells
T1 sequence (looked up) 1: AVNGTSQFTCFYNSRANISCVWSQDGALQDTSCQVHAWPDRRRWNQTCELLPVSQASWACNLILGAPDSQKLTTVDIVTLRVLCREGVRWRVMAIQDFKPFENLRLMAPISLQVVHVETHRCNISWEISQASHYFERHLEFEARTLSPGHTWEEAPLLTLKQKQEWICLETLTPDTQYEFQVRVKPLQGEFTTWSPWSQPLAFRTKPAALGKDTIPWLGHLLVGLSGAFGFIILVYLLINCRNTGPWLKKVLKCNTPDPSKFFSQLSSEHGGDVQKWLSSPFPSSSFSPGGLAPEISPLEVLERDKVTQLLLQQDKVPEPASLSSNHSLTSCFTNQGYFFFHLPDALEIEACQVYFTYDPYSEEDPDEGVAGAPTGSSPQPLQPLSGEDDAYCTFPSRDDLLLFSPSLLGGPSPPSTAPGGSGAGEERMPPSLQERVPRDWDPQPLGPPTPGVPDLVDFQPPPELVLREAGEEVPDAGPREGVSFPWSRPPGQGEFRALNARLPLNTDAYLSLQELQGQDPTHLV
T1 sequence (looked up) 2: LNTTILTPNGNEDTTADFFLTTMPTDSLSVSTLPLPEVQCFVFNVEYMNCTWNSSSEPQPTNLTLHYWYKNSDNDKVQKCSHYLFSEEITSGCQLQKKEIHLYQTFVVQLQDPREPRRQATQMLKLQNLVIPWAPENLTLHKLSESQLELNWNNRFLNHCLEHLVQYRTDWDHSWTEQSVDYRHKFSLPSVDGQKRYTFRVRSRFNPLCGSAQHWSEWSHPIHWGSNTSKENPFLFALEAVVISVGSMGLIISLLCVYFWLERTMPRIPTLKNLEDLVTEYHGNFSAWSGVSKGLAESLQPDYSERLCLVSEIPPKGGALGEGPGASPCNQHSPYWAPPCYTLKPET

T2: human IL-2Rαβγ (high-affinity IL-2 receptor) on cells (human, UniProt P01589 22-272; P14784 27-551; P31785 23-369)
T2 sequence (looked up) 1: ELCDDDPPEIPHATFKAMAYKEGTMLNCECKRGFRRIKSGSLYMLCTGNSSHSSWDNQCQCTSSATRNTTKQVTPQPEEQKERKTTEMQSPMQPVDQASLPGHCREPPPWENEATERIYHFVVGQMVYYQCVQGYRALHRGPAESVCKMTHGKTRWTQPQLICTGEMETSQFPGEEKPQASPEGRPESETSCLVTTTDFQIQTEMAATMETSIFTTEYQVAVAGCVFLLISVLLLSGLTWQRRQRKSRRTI
T2 sequence (looked up) 2: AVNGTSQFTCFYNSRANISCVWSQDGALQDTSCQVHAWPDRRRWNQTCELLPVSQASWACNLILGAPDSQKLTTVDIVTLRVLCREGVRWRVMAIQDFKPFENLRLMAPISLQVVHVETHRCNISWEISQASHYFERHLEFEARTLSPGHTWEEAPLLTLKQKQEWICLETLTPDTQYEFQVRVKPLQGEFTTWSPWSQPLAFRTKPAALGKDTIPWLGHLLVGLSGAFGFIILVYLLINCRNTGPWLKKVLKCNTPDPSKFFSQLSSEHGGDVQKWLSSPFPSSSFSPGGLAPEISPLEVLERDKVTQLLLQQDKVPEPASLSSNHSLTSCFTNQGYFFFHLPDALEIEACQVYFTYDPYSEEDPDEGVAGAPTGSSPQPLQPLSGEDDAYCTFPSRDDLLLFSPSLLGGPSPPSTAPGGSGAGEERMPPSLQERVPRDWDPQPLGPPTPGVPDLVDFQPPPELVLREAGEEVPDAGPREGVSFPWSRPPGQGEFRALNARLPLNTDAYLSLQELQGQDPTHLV
T2 sequence (looked up) 3: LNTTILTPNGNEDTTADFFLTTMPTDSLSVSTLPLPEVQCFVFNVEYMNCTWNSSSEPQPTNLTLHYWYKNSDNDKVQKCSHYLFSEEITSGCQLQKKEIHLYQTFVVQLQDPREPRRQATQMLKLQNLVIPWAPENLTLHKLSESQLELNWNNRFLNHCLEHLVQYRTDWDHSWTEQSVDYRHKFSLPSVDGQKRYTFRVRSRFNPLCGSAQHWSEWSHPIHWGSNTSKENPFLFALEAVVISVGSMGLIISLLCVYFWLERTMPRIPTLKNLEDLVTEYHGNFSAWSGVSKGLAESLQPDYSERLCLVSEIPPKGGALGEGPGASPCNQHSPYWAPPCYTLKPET


Tests used:
[1] = target: T1, human IL-2Rβγ on CD8+ effector T cells; assay: flow cytometry on primary human CD8+ effector T cells, PE goat anti-human IgG, MFI
[2] = target: T2, human IL-2Rαβγ (high-affinity IL-2 …); assay: cell-based or functional assay

binding result [1] | EC50 (nM), activation of HEK-Blue/IL-2 cells [2] | EC50 ratio of IL-2 variant-containing protein to WT [2] | Binder
binds | 0.145 nM | 12 | D22: Fc-linker-IL2-D22 (Fc fusion, IL-2 part IL2-D22 (delK35, Y45R)) [human IgG1 Fc omitted here]GGGSGGGGSGGGGSAPASSSTKKTQLQLEHLLLDLQMILNGINNYKNPLTRMLTFKFRMPKKATELKHLQCLEEELKPLEEVLNLAQSKNFHLRPRDLISNINVIVLELKGSETTFMCEYADETATIVEFLNRWITFSQSIISTLT
binds | 0.321 nM | 26.7 | D37: Fc-linker-IL2-D37 (Fc fusion, IL-2 part IL2-D37 (delK35, F42A, Y45R)) [human IgG1 Fc omitted here]GGGSGGGGSGGGGSAPASSSTKKTQLQLEHLLLDLQMILNGINNYKNPLTRMLTAKFRMPKKATELKHLQCLEEELKPLEEVLNLAQSKNFHLRPRDLISNINVIVLELKGSETTFMCEYADETATIVEFLNRWITFSQSIISTLT
– | 0.221 nM | 18 | PC: Fc-linker-IL2 (positive control protein, IL-2 part from RG6279) (Fc fusion) [human IgG1 Fc omitted here]GGGSGGGGSGGGGSAPASSSTKKTQLQLEHLLLDLQMILNGINNYKNPKLTRMLTAKFAMPKKATELKHLQCLEEELKPLEEVLNGAQSLMFHRDLISNINVIVLELKGSETTFMCEYADETATIVEFLNRWITFAQSIISTLT
